Laboratory results reported in the RNAGym collection of RNA variant scans (doi:10.7554/elife.90254).
The source gives no read counts; variants with many changes may rest on few reads.

B1: LINE1-mini (parent)
chain: GGCAGAGCUCAACACAGCGUGGCAAAGUGGCUGUGGCUAGACUGCC

Variants of: B1
Experiment: self-cleavage, relative activity (ratio to wild type); higher = more cleavage; in vitro, sequencing; the parent is a self-cleaving ribozyme

Variant | self-cleavage
C18G G36U A41U | 0.09
C15G C23A A41G C45A | 0.03
G7A G17A G21U U32C | 0.03
C13U A16U A39U | 0.04
A24G A25G U32A U38G G40A | 0.01
G7U G22C C42U | 0.12
C3G A4C G5C A12G | 0.09
C8U G17C A25C C31U | 0.04
C10G G17A U34A | 0.02
G21A C37A G44C | 0.06
G5U C8U A11C G30C | 0
A6U C8G C10A G30U U43C | 0.01
G5A A26C U38A | 0.42
C8U U20G U34C A39G | 0.14
C18U G29A G30U C37A | 0
G2A A11C C13A G40U | 0.03
U9C A24U G33A | 0.04
C8U A11C C42G C45U | 0.02
C8U U34A A39U | 0.14
A4U C18G U38G | 0.04
U20G A24U U28G C46U | 0.23
G2U A6G G27U C37G | 0.01
A26C G33A A41C | 0.12
A16C C31A G40A | 0.01

Variant | self-cleavage
G2U A4G G21U A24U G36C | 0.21
A14U G29A G40A C42U C46G | 0.03
C8U A14U G40U | 0.1
G1A A12G U32A U38G A39G G40C | 0.02
U20G C23A G27U | 0.23
G5U U9A G36A | 0.09
G2A C10U C13G | 0.05
G19U G33C U34A | 0.01
A25G A41U U43G | 0.02
A6U C8A U34G | 0.07
G2A A11U U34G A39G | 0.01
U9A C18G A25C | 0.06
A4G C10G A11G C15U A25U | 0.02
G7U C10A C23G C46U | 0.01
A16C G17A C23A C42U | 0.06
U20A G40A U43A | 0.05
G19C G29C A39U G40C | 0.03
G1C C8A G30U U32G | 0.11
A11C G22A A25U U28C | 0.1
G2U G19U A39G | 0.01
C18A G40C G44U | 0.01
A25U G35U U38C U43G C46U | 0.04
U9G U28A U38C | 0.09
C10A A14U G40U | 0.01

Variant | self-cleavage
A6U C10U C15A G29U | 0.02
A4U G7U G27A G30U C37G C42U U43A | 0.02
C3A A4U G22C G36U | 0.3
G5C C23G U32C | 0.01
G1C C13G A16G G44A | 0.01
G5U C23A G40A | 0.12
G19U G27C A41C | 0.03
C10U A24G G27U U32C | 0.03
G21C G29U A39C G44U | 0.04
C18G G21A C45A | 0.18
U32G G44A C46G | 0.04
A24C A25G G29U G30U C31G | 0.03
C8A G30U A41U | 0.37
G22C G40U G44U | 0.08
C8A G33U G40C | 0.24
G27A C31A A39C | 0.01
C8G G17A A39U G40A C45U | 0.08
U9G A14U A39G A41C | 0.03
A4G A12U G27C A41U G44C | 0.04
G7A U9G C15A G30U U43C | 0.06
G17U A26G G29U G36U G40C | 0.06
A26C U28G A41C | 0.01
C13U G22U G36U | 0.14
A4C A12C C18U G40C C42G G44U C45U | 0

Variant | self-cleavage
G1C A16G C42U U43C | 0.03
C8U U20A U32C A39U G40U | 0.18
G1U G22C C23A A25G A26G G27C C46A | 0.63
C15A A26U G30U C37A | 0.02
A6C G7A G29C C31U C45A C46A | 0.02
G7A C13A U32G | 0.07
C10A A14G G21C G27C U38C | 0
G33A C42G C46A | 0
A14G G30A C31G | 0.02
A12C C13U C15A C37G C45U | 0
G7A C15A C37U C46U | 0.04
G19C G22A A41U C42A | 0.36
A14C U32A G35U | 0.01
G2U C8G G17A A39G | 0.05
A6G U9A C31G | 0.02
G5C A26G C37G U38G | 0
G17A G30A A41U | 0.03
G2U C3A A25G G29U | 1.71
C3A U20G G36U A39G | 0.12
C3G C8A G22U C23G G40U | 0.09
C10U A12G C23A U32A U34C | 0.02
G2U C13A G36U C37U | 0.03
G5C C37A G44A | 0.09
A6C A11C U20A G27C | 0

Variant | self-cleavage
G1U G35C U38C | 0.02
A14C C18G G35A | 0.02
C10G A11C C13A C42U | 0.01
G7A G29A C31G | 0.03
A12G A14C A26C G30U | 0.01
A14G U32G G33A G44C | 0.03
G2A A6U C10A A14C G17C C23A U32G | 0.02
G1U G19A C37U | 0
C8A A12U G17A C46G | 0.27
G2C C13G G22C G30U U38G | 0.03
G1C C18A G22A | 0.08
C23A G29U C45A | 0.34
G1U G19A A25U C45A | 0.37
C10U A16C A39C U43A | 0
G5C C8U C10U A25C | 0.02
C10U G17C G21C C23A | 0.33
C18G G27C U32G A41G | 0.03
A4C G7U C13A G44A | 0.64
A4C G22U A24U G27U G29U | 0.07
C3G C8G C23G G30U G35U G40C | 0.18
A11U G29A C46U | 0.23
C15U G29A G35C | 0.01
A14C G30U G35U | 0.05
C10A G33C C37U | 0.02

Variant | self-cleavage
G7C G17C G33C G35A | 0.06
C8G C10A A16G U32C | 0.03
A6G C23A A39G | 0.03
G1A G19U U20A G30U C45G | 0.09
G33U A39G G40A U43C | 0.03
G35C G40A C42U | 0.04
C3A A6G U38G | 0.21
C3U G22A A24U G36U C37A C42U | 0.02
G17U U38G G40C | 0.02
C3U G7C A16U C37U | 0.02
G2A A25U G35U | 0.45
U9C G22U A41U | 0.06
C18U U32G C46A | 0.01
U9A C15G G19U A24G U32C G36C | 0.06
C3A U28A C42A | 0.06
G21U U28C G40A | 0.1
G2U C8A A24U G40A | 0.41
A6G U28G G35U G40U | 0.1
G2U U34C C46A | 0.02
A14U A41C C46A | 0.06
C8G G22A C45U | 0.07
G17U C18U C42U | 0.03
U9A A11C A12G G21U | 0.01
G2U U9A A26U U34C A41C | 0.05

Variant | self-cleavage
C3G A4C A26C G29C | 0.13
G2U U20C C23A A24G | 0.03
A6C A11G C13G | 0.02
A14C C23A G27U | 0.1
G1A C8A A12C G30U C37U | 0.03
A11G G17C G29U C37G A39C | 0
U9C A16U G17C G29U | 0.11
A16U G22C A41C | 0.03
G1C A11G A25G C31G | 0.03
A4G A26C G33A | 0.12
A4G C13U C42A | 0.1
C10G G27A U43G | 0
G1U A11U U34G C46U | 0.02
G1U C23U A25G | 0.09
G17C U34G G40C | 0.02
A6G A12U A16U C23A G30C C31U G33U A41U | 0.12
C3U A4U U9G G27A C46A | 0.12
C3U G7C G19A G30C | 0.18
G19C U20G G21C | 1.57
G1U G2C C10A U28C A39G | 0
C10A G17C C18G | 0.01
A6U G17A G35A | 0.02
A11C U38G G44C | 0
